“And” between values parts separate entries of the source, which are not always exact repeats. Identical values can stand only once. The campaign covered roughly 420,000 compounds. About 50,000 (12%) were called active. Inconclusive means that the source gave no clear call. Such entries were picked first, then a sample of the others. The call rests on the fitted dose curve; in most records, active means well fitted inhibition curve with a large enough effect; inconclusive means small, poorly fitted or top-dose-only effect; inactive means flat fitted curve, though single readings scatter. Potencies beside an inconclusive call are fits to weak or partial responses and may not hold up.
assay: qHTS for Inhibitors of human tyrosyl-DNA phosphodiesterase 1 (TDP1): qHTS in cells in presence of CPT; conditions: chicken DT40 Tdp1-/-;hTDP1 cells + 20 nM CPT, ATP luminescence, 48 h; activity change, negative = growth inhibition: at 46.2 µM (top of the series); further: nearly all actives have a fitted effect of over 55% in size
Summary of the method: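 Cell growth measured by CellTiter-Glo luminescence after a minimum 48 h, 37 C compound exposure with 20 nM CPT in Tdp1-knockout DT40 cells stably expressing hTDP1, seeded 400/well; qHTS titration format.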
On the % scale 0 is the no-effect control and ±100 the full control effect; potency means the concentration at half of the fitted maximal effect; tags describe the fitted curve by direction and shape.

Row | SMILES | activity change, negative = growth inhibition | Potency
1 | CC(Oc1ccc2c(-c3ccccc3)cc(=O)oc2c1)C(=O)O (stereo unspecified) | inactive: -19.2% | –
2 | Cc1ccc2c(c1)N(C(=O)N1CCC(C(=O)NCc3ccccc3F)CC1)CC(C)O2 (stereo unspecified) | – | inconclusive: 29.1 µM [inhibitor, single point]
3 | Cc1cccc(NC(=O)c2sc(-n3nc(C)c(CCC(C)C)c3C)nc2C)c1 | – | inconclusive: 20.6 µM [inhibitor, single point]
4 | NC(=O)c1cc(-c2csc(NCCc3ccccc3)n2)ccc1O | – | inconclusive: 29.1 µM [inhibitor, single point]
5 | COc1ccc(OCCNC(=O)c2ccccc2OCC(=O)Nc2ccc(NC(C)=O)cc2)cc1 | – | active: 18.4 µM
6 | Nc1c(C(=O)c2ccccc2)sc(Nc2ccc(Cl)c(Cl)c2)c1C(=O)Nc1ccccc1 | – | inconclusive: 25.9 µM [inhibitor, single point]
7 | CCOC(=O)[C@H]1[C@H]2COc3cc(OC)ccc3[C@@H]2N2C(=O)c3cc(OC)ccc3NC(=O)[C@@]12C | – | inconclusive: 29.1 µM [inhibitor, single point]
8 | CC[C@@H]1C(c2cccc(Cl)c2)=NN(c2ccc(Br)cc2)[C@H]1C(=O)N1CCOC1=O | – | inconclusive: 25.9 µM [inhibitor, single point]
9 | COc1cc2c(NC3CCN(C)CC3)nc(N3CCCN(C)CC3)nc2cc1OCCOCCN(C)C | – | inconclusive: 35.5 µM [inhibitor, single point]
10 | Fc1ccc(CN2CC[C@H]3C=CCc4cccc(c43)C2)cc1 | – | inconclusive: 25.9 µM [inhibitor, single point]
11 | COc1ccccc1-c1csc(C(NC(C)=O)c2ccccc2)n1 (stereo unspecified) | inactive: -14.8% | –
12 | COC1=C(OC)C(=O)c2ccccc2C1=O | – | active: 7.94 µM
13 | CC1(C)OC(c2ccccc2)=C/C(=C\C=N\NC(=O)c2ccncc2)O1 | – | inconclusive: 29.1 µM [inhibitor, single point]
14 | O=C(NC(c1ccc(-c2ccccc2)cc1)c1cnccn1)C1CCN(Cc2ccc(Oc3ccccc3)cc2)CC1 (stereo unspecified) | – | inconclusive: 20.6 µM [inhibitor, single point]
15 | COc1ccc(C(=O)N2CCC3(CCCN(Cc4nccs4)C3)CC2)cc1 | inconclusive: -31.2% [inhibitor] | –
16 | O=S1(=O)CC(N2CCCC2)CN1Cc1cn(Cc2cccc(Cl)c2)nn1 (stereo unspecified) | inactive: 4.03% | –
17 | Cc1c(C2OC(=O)C3(CCCCC3)C(=O)C2(C)C)c(=O)n(-c2ccccc2)n1C (stereo unspecified) | – | inconclusive: 20.6 µM [inhibitor, single point]
18 | CCOC(=O)c1cc(CC)sc1NC(=O)COC(=O)C1CCC1 | inactive: 11.6% | –
19 | O=C(C1CC2CCC1C2)N1CCN(Cc2ccc3c(c2)OCO3)CC1 (stereo unspecified) | inactive: -23.3% | –
20 | CC(C)C(=O)Nc1cccc(COc2ccccc2CN(Cc2ccccc2)C(=O)OC(C)(C)C)c1 | – | inconclusive: 29.1 µM [inhibitor, single point]
21 | Cc1cccc(C)c1N1C(=O)c2ccccc2NC(=O)C1C(=O)Nc1ccc(N2CCOCC2)cc1 (stereo unspecified) | – | inconclusive: 23.1 µM [inhibitor, single point]
22 | Cc1cccc(-c2nn(-c3ccccc3)cc2C(=O)N(C)CC(=O)Nc2ccc(N3CCOCC3)cc2)c1 | inactive: -22.6% | –
23 | CCOC(=O)c1c(CC(C)C)csc1NC(=O)COC(=O)c1cc(OC)c(OC)cc1[N+](=O)[O-] | – | active: 11.6 µM
24 | NS(=O)(=O)c1cccnc1Nc1c(Cl)cccc1Cl | inactive: -21.5% | –

Row | SMILES | activity change, negative = growth inhibition | Potency
25 | CCOC(=O)C1=C(C)N=C2SC(C)C(=O)N2C1c1cccc(F)c1 (stereo unspecified) | – | inconclusive: 29.1 µM [inhibitor, single point]
26 | CCOC(=O)c1c(-c2ccccc2)oc2ccc(OCC)cc12 | inactive: 11.4% | –
27 | CCOc1ccc(NC(=S)N2CCC(NC(=O)c3ccccc3)CC2)cc1 | inactive: 10.3% | –
28 | COc1cc2ccccc2cc1C(=O)Nc1ccc2oc(-c3cccc(C)c3)nc2c1 | – | inconclusive: 20.6 µM [inhibitor, single point]
29 | CCCCn1c(SCC(=O)N2CCN(c3ccccc3)CC2)nc2ccsc2c1=O | – | active: 11.6 µM
30 | O=C1CSC(=S)N1Cc1cccnc1 | – | active: 4.61 µM
31 | COc1ccccc1Cc1c(-c2ccc(C#N)cc2)nc2c(Cl)cc(C(F)(F)F)cn12 | – | active: 23.1 µM
32 | O=C(NCc1cccc(F)c1)c1cccc2c1C(=O)c1ccc(N3CCCC3)cc1S2(=O)=O | – | inconclusive: 29.1 µM [inhibitor, single point]
33 | CN(Cc1ccon1)C(=O)C1CCN(C2CCN(CCCc3ccccc3)CC2)CC1 | – | inconclusive: 29.1 µM [inhibitor, single point]
34 | CCCCNC(=O)CCCn1c(=O)c2ccccc2n(CC(=O)NCCC2=CCCCC2)c1=O | – | inconclusive: 23.1 µM [inhibitor, single point]
35 | CCOc1ccccc1NC(=O)CCn1ccnc1 | inconclusive: -33.5% [inhibitor] | –
36 | O=S(=O)(c1ccccc1)c1nc(-c2ccccc2F)oc1N1CCOCC1 | – | inconclusive: 23.1 µM [inhibitor, single point]
37 | O=C([C@@H]1C[C@@H](Sc2nc3ccccc3[nH]2)CN1Cc1ccc(Cl)cc1)N1CCN(c2ccccc2F)CC1 | – | inconclusive: 18.4 µM [inhibitor, single point]
38 | Cc1ccc(NC(=O)c2ccc([N+](=O)[O-])o2)cc1S(=O)(=O)N1CCOCC1 | – | active: 5.17 µM
39 | Cc1cccc(CC(=O)N2CCOCC2)c1 | inactive: -1.81% | –
40 | COc1ccc(CCNc2nc3cc(OC)c(OC)cc3c3nc(-c4cccnc4)nn23)cc1OC | inactive: -16% | –
41 | O=C(COc1ccc(Cl)cc1Cl)N(Cc1ccco1)C1CCS(=O)(=O)C1 (stereo unspecified) | inactive: -23.4% | –
42 | COc1ccc(OC)c(NC(=O)N2CCN(Cc3nc4ccc(C)cc4o3)CC2)c1 | – | inconclusive: 16.4 µM [inhibitor, single point]
43 | COc1ccccc1-c1cc(C(=O)N/N=C/c2ccoc2)c2ccccc2n1 | – | inconclusive: 10.3 µM [inhibitor, partial curve]
44 | CN(c1ccc(Cl)cc1)c1cc2c(c3c1ccn3C)C1CCC2C1 (stereo unspecified) | inactive: 1.45% | –
45 | CCOc1ccc(NC(=O)CN(C)C(=O)c2cccc(S(=O)(=O)N3CCCC3)c2)cc1OCC | inactive: 6.25% | –
46 | CN1CCC/C1=C1/C(=O)N(c2ccccc2)N=C1NC(=O)Nc1cccc(Cl)c1 | – | active: 8.2 µM
47 | COc1cc(C2C(C#N)=C(N)Oc3c2c(-c2ccccc2)nn3-c2ccccc2)cc(OC)c1OC (stereo unspecified) | – | inconclusive: 32.6 µM [inhibitor, partial curve]
48 | CCC(C)NC(=S)Nc1ccc2nc(N3CCOCC3)cc(C)c2c1 (stereo unspecified) | – | inconclusive: 25.9 µM [inhibitor, single point]

Row | SMILES | activity change, negative = growth inhibition | Potency
49 | COc1ccccc1NS(=O)(=O)c1cc(NC(=O)CCc2nc3ccccc3c(=O)[nH]2)ccc1C | – | inconclusive: 23.1 µM [inhibitor, single point]
50 | Cc1ccc(S(=O)(=O)CCC(=O)N2CCN(c3ccc([N+](=O)[O-])cc3)CC2)cc1 | – | active: 18.4 µM
51 | CC(C)(C)NC(=O)CSc1nsc(SCC(=O)NC(C)(C)C)c1C#N | – | active: 23.1 µM
52 | Cc1[nH]c2ccccc2c1C(=O)COC(=O)c1nccnc1N | inactive: -3.36% | –
53 | Cc1cccc(OCCCn2c(CCNC(=O)C(C)C)nc3ccccc32)c1 | – | inconclusive: 20.6 µM [inhibitor, single point]
54 | CN(C)c1ccc(-c2noc(C3CCN(S(=O)(=O)c4ccc(C(=O)O)cc4)CC3)n2)cc1 | – | inconclusive: 29.1 µM [inhibitor, single point]
55 | Oc1[nH]c2ccccc2c1N=Nc1nc2ccccc2s1 | – | inconclusive: 18.4 µM [inhibitor, single point]
56 | O=C(COC(=O)c1ccc2c(c1)OCCO2)Nc1ccccc1C(F)(F)F | inactive: 5.34% | –
57 | Clc1ccc(-c2nnc(-c3ccco3)nc2N2CCCCC2)cc1 | – | active: 20.6 µM
58 | CC(=O)c1ccc(OCC(=O)Nc2c(C)nn(-c3ccccc3)c2C)cc1 | – | inconclusive: 29.1 µM [inhibitor, single point]
59 | CCCc1cc(=O)oc2c3c(cc(OCC(=O)NCC4CCC(C(=O)O)CC4)c12)OC(C)(C)CC3 (stereo unspecified) | – | inconclusive: 23.1 µM [inhibitor, single point]
60 | OC(CNCC1COc2ccccc2O1)COCc1cccs1 (stereo unspecified) | – | inconclusive: 25.9 µM [inhibitor, single point]
61 | COCCN(CCOC)c1nc(-c2ccc(Cl)cc2)nc2ccccc12 | – | active: 18.4 µM
62 | CCC(CO)Oc1cc(NC(=O)c2ccc(C)cc2)c2ncn(C(C)C)c2c1 (stereo unspecified) | – | active: 23.1 µM
63 | Cc1ccccc1NCc1nc2ccccc2n1CCOc1ccccc1 | – | inconclusive: 29.1 µM [inhibitor, single point]
64 | O=C(C1CCN(S(=O)(=O)c2cccs2)CC1)N1CCCC(C(F)(F)F)C1 (stereo unspecified) | inactive: 1.23% | –
65 | CCCCCC(=O)N1CC2(CC(c3cccc(NC(=O)CC)c3)=NO2)C[C@H]1C(N)=O (stereo partly specified) | inactive: 9.69% | –
66 | CCOc1ccc(NC(=O)CN(C)C(=O)c2cc(-c3ccco3)nc3ccccc23)cc1OCC | – | active: 18.4 µM
67 | Cc1cc(C)n(C(=O)N(c2ccccc2)c2ccccc2)n1 | – | inconclusive: 18.4 µM [inhibitor, partial curve]
68 | O=[N+]([O-])c1ccc2nonc2c1Nc1ccccc1 | inactive: 7.05% | –
69 | COc1c(Cl)ccc(Cl)c1C(=O)NC(=S)N1CCOCC1 | inactive: -6.27% | –
70 | COc1ccc(C(=O)Nc2nc3c(s2)Cc2cc(OC)ccc2-3)cc1 | – | inconclusive: 18.4 µM [inhibitor, single point] and inconclusive: 29.1 µM [inhibitor, single point]
71 | Cc1c(C(=O)N(C)C)sc2c1c(=O)n(-c1ccccc1C(F)(F)F)c(=O)n2Cc1cccc(F)c1 | inactive: -20.3% | –

Reference: PubChem BioAssay AID686979 (National Center for Advancing Translational Sciences (NCATS), 2013)
